Target: alpha-1 antitrypsin (A1AT), P01009
Sequence (P01009 whole entry, looked up): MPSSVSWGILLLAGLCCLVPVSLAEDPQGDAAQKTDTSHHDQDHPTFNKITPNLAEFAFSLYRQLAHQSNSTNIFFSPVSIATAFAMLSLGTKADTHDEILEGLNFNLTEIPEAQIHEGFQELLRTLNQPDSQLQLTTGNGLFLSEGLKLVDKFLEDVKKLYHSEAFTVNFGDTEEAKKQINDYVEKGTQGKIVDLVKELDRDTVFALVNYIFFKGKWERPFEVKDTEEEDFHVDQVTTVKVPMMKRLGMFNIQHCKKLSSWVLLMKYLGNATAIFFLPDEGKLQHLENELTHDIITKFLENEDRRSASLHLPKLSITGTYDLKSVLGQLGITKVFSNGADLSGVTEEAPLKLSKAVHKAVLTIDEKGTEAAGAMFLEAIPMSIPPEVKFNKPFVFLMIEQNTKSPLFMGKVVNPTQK

B1: wild-type recombinant PPE proprotein (pro-rPPE) with a C-terminal his-tag (protein)
chain: TQDFPETNARVVGGTEAQRNSWPSQISLQYRSGSSWAHTCGGTLIRQNWVMTAAHCVDRELTFRVVVGEHNLNQNDGTEQYVGVQKIVVHPYWNTDDVAAGYDIALLRLAQSVTLNSYVQLGVLPRAGTILANNSPCYITGWGLTRTNGQLAQTLQQAYLPTVDYAICSSSSYWGSTVKNSMVCAGGDGVRSGCQGDSGGPLHCLVNGQYAVHGVTSFVSRLGCNVTRKPTVFTRVSAYISWINNVIASN
protease activity (colorimetric activity assay) after A1AT incubation, Ni-Sepharose purification and trypsin activation: full recovery of protease activity for pro-rPPE following isolation from the A1AT solution

B2: active PPE protein (rPPE), made from pro-rPPE by trypsin activation (protein)
chain: VVGGTEAQRNSWPSQISLQYRSGSSWAHTCGGTLIRQNWVMTAAHCVDRELTFRVVVGEHNLNQNDGTEQYVGVQKIVVHPYWNTDDVAAGYDIALLRLAQSVTLNSYVQLGVLPRAGTILANNSPCYITGWGLTRTNGQLAQTLQQAYLPTVDYAICSSSSYWGSTVKNSMVCAGGDGVRSGCQGDSGGPLHCLVNGQYAVHGVTSFVSRLGCNVTRKPTVFTRVSAYISWINNVIASN
protease activity (colorimetric activity assay) after A1AT incubation and Ni-Sepharose purification: the protease activity of activated rPPE was attenuated by A1AT when subjected to an identical procedure

Source: US20230348881
